Measurements reported in the supplement of paper PMC11417369.
The other results are listed elsewhere or left out.

system: PfAP2-HC AP2 domain (GST-tagged); test: gcPBM binding intensity (ln(normalized median fluorescence intensity)); higher = stronger DNA binding
Method in brief: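 Each value is the highest Masliner-normalised natural-log median intensity across replicate spots of either orientation of a probe. The probes were primer-extended double-stranded 36-bp intergenic genomic sequences on an Agilent 4 × 180k array, alongside negative controls, exposed for 1 h to GST-tagged P. falciparum DNA-binding domains expressed in E. coli. Bound protein was picked up with Alexa488 anti-GST antibody and scanned at 488 nm.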

Point of comparison: “TAAATTAATACCTATGCACACATTTTTTTTTTTAAA [CACACA_site1238]”, “gcPBM binding intensity (ln)” value 9.71. Against it:
- AAAAAAAAAAAATATACACACACACCGACACATAAA [CACACA_site9270] — higher, 10.9
- CAATAATTTTTTGTGGGTACAAATAATTTTTTAAAT [XGTACX_site2407] — lower, 9.34
- AGGAGAAAAGATAAAGACTTCAAGAAAAAAAAATAA [TGCATGCA_negctrl_site258] — lower, 9.34
- AAAATATAAAAAGTCACACATATATATATTTATTTA [CACACA_site4872] — lower, 9.64
- TTGAATGAAAAAATTTGTACTCATATAAATAATTTA [XGTACX_site4628] — lower, 9.29
- CTTAAATTTTTAAATACACACATACACCCATACACA [CACACA_site4461] — higher, 10.4
- AAACCCTATTCAATGCAATAATTTTATAATTTTTTT [TGCATGCA_negctrl_site434] — lower, 9.56
- TTTTTTTTAAATATCACACACATATAATATATTCTA [CACACA_site3668] — higher, 9.85
- AAATTATCTTAATAGGATGTTCAAGGAGAAAGATGA [CACACA_negctrl_site1032] — lower, 9.7
- TTTATTATAATATGTTGTACAAGACGTTTCAGTATA [XGTACX_site4486] — lower, 9.47
- TTTTCTTACACGAATTTTAAATTCAATATTAAACAT [CACACA_negctrl_site286] — lower, 9.39
- TTACCTTTTTCTAATGGTACACATAAAATATCATTT [XGTACX_site6825] — lower, 9.63
- GAGTTAATTTTTTCGTGTACTTGAAAATATTTTTTT [XGTACX_site6392] — lower, 9.7
- TTAGCAACTATTACTACACACATTTGTATATAACTT [CACACA_site6850] — higher, 10
- GTGGAAATATAACACATTTTTTTTAATAATTATATT [TGCATGCA_negctrl_site522] — lower, 9.55
- TAGCGGCGGTATCATGCACACGTATATATTGTAACA [CACACA_site8453] — higher, 9.76
- ATAGTTTTATATAAATGTACAAATGATTTCAAATAG [XGTACX_site8236] — lower, 9.61
- AACATGTATATATTATGTACATATGTTAAAATGATA [XGTACX_site6217] — higher, 9.8
- TAAAAGTAAAGACATGCATGCATTGGTATCTTTTAC [TGCATGCA_site665] — lower, 9.67
- TATAATAAAACTTTTACACACTTTAAAAAAAAAAAA [CACACA_site6392] — lower, 9.59
- GACCCACTTTTCTGCACACATAAAAAATATATAAAT [CACACA_site4483] — higher, 9.87
- TTTATATTTAAATATATATGAGAAAACACAAAATAT [TGCATGCA_negctrl_site211] — lower, 9.58
- TATATATATATATATATACACACGTATATATATACA [CACACA_site4155] — higher, 10.1
- ATATCTTTGCAAAGATGTACTTGTAAAAATATATGA [XGTACX_site768] — lower, 9.52
- TAATATCAATATAAAGTACACACTATAGTATGTATT [CACACA_site2280] — higher, 9.79
- TAGTTACTTCTTATATAAAATATGTATATAAAAATA [GTGCAC_negctrl_site190] — lower, 9.33
- TTGTTTGTTGTAACGTGTACAGATAAAAATAAAGGG [XGTACX_site375] — lower, 9.68
- TTCATATTATAGTGCACACAAAAATATATATATGGT [CACACA_site2855] — higher, 9.87
- TCTCTCATTTATTTTTGTACTTAATCCAGCACGTTT [XGTACX_site1369] — lower, 9.67
- ACATATTAATTATAAAGTACATATATATATATATAT [XGTACX_site4540] — higher, 9.84
- GCTTCATTTTAAACTTGTACTTATTTTTTGGTAAAT [XGTACX_site8879] — higher, 9.78
- GTTGTGTAATTCGTAACACACATAAAATATAAATAA [CACACA_site7799] — higher, 9.83
- AAAAAAAAAAAAAAAAAAAAAAAAATATATATATAT [CACACA_negctrl_site436] — lower, 9.68
- TTACTATATAATATGTGTACACAACATATAATATAT [XGTACX_site1383] — the same, 9.71
- TTTTTTTTTTGATGTTGTACTTATATACTATATAAT [XGTACX_site2778] — lower, 9.65
- CATTTTTAAAAAAATTGTACAAAACATATATGTGTA [XGTACX_site3396] — lower, 9.52
- TATTAAAAGTAAAAAACACACATGGATATATACATA [CACACA_site3959] — higher, 9.88
- TTCCTTTTGAACTCTCGTACGCGTAGGTGTTATTAT [XGTACX_site6264] — lower, 9.68
- TATGTGTGACAAAATTGTACGGTCTCTTTATTTTGT [XGTACX_site2679] — lower, 9.7
- TATACGGACTCTAAGTGTACTTAAAATAATTCAAAC [XGTACX_site3606] — lower, 9.46
- ATTTTTATACCTAAGTGTACATGATGTTTTCTTTTT [XGTACX_site973] — higher, 9.86
- TATATTGCCCTTCACACACACACATATATATATATA [CACACA_site2492] — higher, 10.8
- TAAAAATGTTGACACACACACATAAATATATTTTAT [CACACA_site7227] — higher, 10.1
- TATTATATAATAAAAATTATTATTATTTGTATAAAT [CACACA_negctrl_site195] — lower, 9.34
- TGTTTCCTATTTTGTATGCACTTTTTGTCATAATTA [GTGCAC_site9921] — higher, 9.97
- TAAATAAATAAAAAAACACACATATAAATATAAATA [CACACA_site7815] — higher, 9.93
- TAAACAGACATACATACACACATACATACAGACATA [CACACA_site6997] — higher, 10.6
- AAAAAAAAAGTATATATATATTTAAGGAATTCTCTC [GTGCAC_negctrl_site454] — lower, 9.56
- CATATACTCGGACACACACACACACCGACAAAAAAA [CACACA_site4433] — higher, 11.1
- TTTATAGTTTTTAATAGTACACATATTTTTAAGTAT [XGTACX_site5498] — higher, 9.73
- TTTTGTGGAGGATGGTGTACGGTATTGTATTATTAC [XGTACX_site1942] — higher, 10.3
- TATCATAAAATATGTAGTACGTATATATATAAAAAT [XGTACX_site5455] — higher, 9.88
- AATATATAGCTAAAAACACACAAATATATACTCATA [CACACA_site5904] — higher, 9.93
- ATACATTTTTTTTTCACACATATATATATATTTAAT [CACACA_site5995] — higher, 9.87
- CTCACGTAGCTTGATGCATGCAAACTTGAGTAAAAG [TGCATGCA_site409] — lower, 9.47
- TTTATAAAATTTATTGCACACAATTATTTTATAATT [CACACA_site2489] — higher, 9.96
- CAACCTTTTTTGTTGGTGCATAATTTTTTTTTCTTT — lower, 9.5
- ATATATATATATTGCACACATATAAATATATATATT [CACACA_site807] — higher, 9.76
- TTTTATTTTTTCTCACGTACAAATATATAATTTTTT [XGTACX_site6952] — lower, 9.6
- TACATATGGCACATATGTACACACGTATAGATAATA [XGTACX_site4123] — higher, 9.75
- ATGAATATAAAATATACACACTTATATATCGAATGA [CACACA_site6240] — higher, 9.72
- AATATATCCTATTCGAACAAAAATACATGCACATAT [CACACA_negctrl_site1058] — lower, 9.65
- GTATATATATATATATGTACATATATGTAGATATAT [XGTACX_site5431] — higher, 9.91
- ATATGTACGCAAGGTGCACACTGGTGCATTAAAAAA [CACACA_site1801] — higher, 9.91
- TTTTTGTATCCTTCTTCTTTTTCCAGACTACATTAT [XGTACX_negctrl_site216] — the same, 9.71
- AAAAAAAAAATGTGCACACGCGTACACCCAAAAAAA [CACACA_site5149] — higher, 9.86
- TATAAAAATAATATTACACACATGTAAAATGGCTGT [CACACA_site5755] — higher, 9.8
- TCTCAGTAAATTAAATGTACATAAGGGAGGAACTAT [XGTACX_site8045] — lower, 9.69
- TTGTGGATTTTGTGCGCACACACATGCAAAAAGAAA [CACACA_site1147] — higher, 10
- TAAATATATGCATATACACACAACAAAAAAATATAT [CACACA_site2341] — higher, 10.1
- CACAGACATATATATACACACTTTTATTTAAATAAC [CACACA_site4962] — higher, 9.81
- AACATATAAATAAACTGTACATATATATATATATAT [XGTACX_site1056] — lower, 9.68
- AATATTACGTGTTTGGTATTTTTCGATGTTGGCAGG [XGTACX_negctrl_site59] — the same, 9.71
- ATATTATTTTAAAAAAGTACATTTTTAAGAATTCTT [XGTACX_site6630] — lower, 9.37
- ATAAAATTTATATAAGCACACAAATATATATTTATA [CACACA_site9083] — lower, 9.7
- GTAAAGGCTATATATGTGCACATTTTTTTTTTTTTT [GTGCAC_site9925] — higher, 9.86
- AATTGCATAATATATTCACACATTTTTAAGTGATAC [CACACA_site5679] — lower, 9.62
- TTATGGTTATACATATGTACATATATATATATATAT [XGTACX_site1494] — higher, 9.77
- TATCATTATGTAGAAACACACATAAGCTTCGGTTCA [CACACA_site2766] — lower, 9.58
- GGGGAAAAAAAAAAAGGAAAAAGAAAAAAAAAAAAA [GTGCAC_negctrl_site489] — lower, 8.87
- TTAATTATATATAAAAGTACTTATTTTTCCATATAA [XGTACX_site3033] — lower, 9.31
- TAATAGGAAATTATAGGTACACATACAAATAAATAA [XGTACX_site3587] — higher, 9.83
- AATAATAATATATGTAGTACACATTTCCATTATGTT [XGTACX_site3708] — the same, 9.71
- AAAAAAAAAAAAAAAACACACATTTCTTTTTCATAT [CACACA_site11] — higher, 9.81
- ATTTATATATTGCCCACACACATGTGATTATTTATA [CACACA_site1714] — higher, 10
- ATATTAAAAAGAAGTGTGCGCAAAACATTAACTTGA — higher, 10.3
- TAAATAAACCTGACTTGTACATGTAAAATAAATATA [XGTACX_site1667] — higher, 9.8
